# In all, about 33,000 sequences were measured (“E-score (-0.5 to 0.5)”: median about -0.035, highest 2% from about 0.34 on). The list shows a part of the results.
# Target: T1, Mot3 (UniProt P54785)
# T1 sequence: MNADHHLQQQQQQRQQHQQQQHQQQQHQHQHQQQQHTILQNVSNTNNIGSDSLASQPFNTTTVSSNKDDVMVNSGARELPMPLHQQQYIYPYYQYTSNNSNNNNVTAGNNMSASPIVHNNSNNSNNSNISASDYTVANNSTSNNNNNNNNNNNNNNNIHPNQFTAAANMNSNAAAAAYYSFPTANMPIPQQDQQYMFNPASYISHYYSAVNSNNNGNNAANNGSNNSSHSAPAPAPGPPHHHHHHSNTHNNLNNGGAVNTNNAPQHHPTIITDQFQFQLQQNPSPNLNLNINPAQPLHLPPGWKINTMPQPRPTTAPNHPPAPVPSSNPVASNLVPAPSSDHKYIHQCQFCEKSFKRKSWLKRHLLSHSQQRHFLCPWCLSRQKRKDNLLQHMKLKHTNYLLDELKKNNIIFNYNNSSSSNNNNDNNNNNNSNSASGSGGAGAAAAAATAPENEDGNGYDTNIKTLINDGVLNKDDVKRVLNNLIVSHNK
# Experiment: PBM E-score (8-mer binding enrichment) (E-score (-0.5 to 0.5)); higher = stronger / more preferred TF binding; most listed sequences are background and not binding sites
# Settings: protein concentration: 200 nM; construct: GST-full length
# Experimental: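 Universal 'all 10-mer' protein binding microarrays (Agilent AMADID 015681) probed with GST-tagged S. cerevisiae TFs (full-length or DBD) made by in vitro transcription/translation (PURExpress), about 100-200 nM. Bound TF was detected with fluorescent anti-GST. Each ungapped 8-mer (which stands for itself and its reverse complement) is scored by the PBM enrichment score (E-score), a modified Wilcoxon-Mann-Whitney statistic from -0.5 to +0.5, computed with the Universal PBM Analysis Suite. Scale: above 0.35 generally sequence-specific binding.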
row,Sequence,PBM E-score
1,AGGCGCTA,0.336
2,CCGCCCAC,-0.195
3,CTTGCACC,-0.177
4,ACGCACAG,0.108
5,CACTCATG,-0.141
6,GACATTCC,0.0384
7,AATGATTA,0.183
8,AAGGATCC,0.136
9,CGTCTCGA,-0.108
10,GGCGACAC,-0.125
11,GTCTATGA,0.0543
12,CCGGCAAG,-0.0693
13,AAATATTG,-0.0284
14,AGGCTAAA,0.026
15,CACCGTTA,0.0483
16,GGCGGGTA,-0.1
17,AAGGATGT,0.189
18,AGTTCATC,-0.194
19,GCGATGCA,-0.283
20,GAAGATCA,-0.112
21,AACGTTAC,0.17
22,AACTATAC,0.0404

row,Sequence,PBM E-score
1,GCCAGGTA,0.105
2,CCAGGCTC,0.0491
3,AAGATCAC,-0.0705
4,GAGAGCCA,-0.194
5,CCGGGTTC,-0.11
6,TATCCGAA,-0.122
7,ACCGACAT,0.108
8,GTCGCGAA,-0.0793
9,ACCAAACC,-0.134
10,CGAACAGA,-0.00591
11,CGAGGATC,-0.106
12,AAGGGCTA,-0.171
13,GGGTGACC,-0.156
14,CCTGGGAG,-0.125
15,AAACCCGG,-0.154
16,AATTTCTA,0.206
17,GTGCCCCA,-0.248
18,GGGCGATA,-0.21
19,CAGATAAA,-0.0331
20,TCAGACAA,0.0569
21,ATGTCCTG,-0.014
22,AAAATCAT,0.109

row,Sequence,PBM E-score
1,AATGGAGT,-0.128
2,ACCTAGCT,-0.15
3,GACCACCA,-0.228
4,AGGTCTTC,-0.0921
5,GATCTTTA,0.121
6,ATTGGATG,-0.054
7,GGCCATTA,-0.0685
8,ACGCGATA,0.233
9,CAGTTGGC,-0.221
10,CACATACG,0.0727
11,CGTGTACC,0.277
12,AATCGCAG,-0.072
13,CGGTCTGA,-0.216
14,AATATCGG,-0.13
15,GTTGCCAA,-0.074
16,ATTAGTCA,0.016
17,AAGCAGCA,-0.26
18,AGAAATGC,0.042
19,ACTATTAA,0.079
20,ATTCTGGA,0.145
21,CGAGGAAC,0.285
22,ACTATACT,-0.102

row,Sequence,PBM E-score
1,TTCCCCAA,-0.155
2,CAAGTTAA,0.185
3,CTATCATA,0.037
4,AAACGACT,-0.241
5,CCCATTTC,-0.225
6,GTGCGCTA,0.0394
7,AAATAGCT,-0.207
8,CTGTTCAA,0.0328
9,CACGCTTC,0.146
10,ATGGGAAT,-0.00809
11,GCATGCCA,-0.264
12,CAAAGGCA,0.479
13,TCGTCCAA,-0.0369
14,TATTTTGA,0.0358
15,GCCATTTA,-0.0144
16,CAGCATCA,-0.141
17,AATGTTCG,-0.075
18,CCAGGCCA,-0.29
19,TAGACAAA,0.00859
20,CTGCATAC,0.0831
